In the supplement of paper PMC3334620:
In all, about 33,000 sequences were measured (“E-score (-0.5 to 0.5)”: median about -0.056, highest 2% from about 0.38 on). Some of the results follow.

These sequences were tested against Stb4 (UniProt P50104) (assay: PBM E-score (8-mer binding enrichment) (E-score (-0.5 to 0.5)); higher = stronger / more preferred TF binding; most listed sequences are background and not binding sites). Conditions: protein concentration: 200 nM; construct: GST-DNA-binding domain.
Experimental: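 Universal 'all 10-mer' protein binding microarrays (Agilent AMADID 015681) probed with GST-tagged S. cerevisiae TFs (full-length or DBD) made by in vitro transcription/translation (PURExpress), about 100-200 nM. Bound TF was detected with fluorescent anti-GST. Each ungapped 8-mer (which stands for itself and its reverse complement) is scored by the PBM enrichment score (E-score), a modified Wilcoxon-Mann-Whitney statistic from -0.5 to +0.5, computed with the Universal PBM Analysis Suite. Scale: above 0.35 generally sequence-specific binding.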

Sequence | PBM E-score
GCTATCCA | 0.0683
TCTATAAA | -0.117
CCCATGCA | -0.206
ACAACTAT | -0.00435
CATCTTAC | -0.257
AGCATAGG | -0.255
ACACTAGA | -0.217
CGGATATC | 0.426
ATAGTCGA | -0.148
AAGTAGGC | -0.0522
AGATGCCG | 0.286
AGGGGATG | -0.0701
ACGATGGA | -0.0923
ATTGATGA | 0.0235
CGGCCCAA | 0.173
CGGAACCA | 0.41
ACCGCGAG | -0.0863
TTAGTAAA | 0.0263
GACTAGCC | -0.0648
GCCCTTTA | -0.174
GCTTGTTA | -0.0811
AATAAGCT | -0.0963
ACCACCAT | 0.0364
GATTTAAA | -0.105
CGTCTTGC | 0.125

Sequence | PBM E-score
TTCACGAA | -0.257
ATGGCTTA | -0.0952
ACCTATCG | 0.0705
TACTTTAA | -0.117
ACAAGGGG | -0.0735
AGGGCTTC | -0.16
GGCCGATA | 0.171
ATCAAGAT | -0.0843
GCCATTAC | -0.0125
CAGGCCCC | -0.152
CCAATATA | -0.0487
CATTCCGG | 0.358
GCTATAGC | -0.096
CCCCAGTC | -0.053
CAGCAATA | -0.144
AAGCTAGG | 0.0266
AGCCGAGA | 0.436
GGCACCCC | -0.106
CTGCGAAG | -0.272
AACAGAGC | -0.0496
ATAGACGC | 0.00559
CCGCTGCA | -0.0547
ATCAGGAA | -0.127
CTGTGACA | -0.19
AACATCTG | -0.189

Sequence | PBM E-score
AATCTTCT | 0.00884
AGAATCCG | 0.27
TCGGGAGA | 0.391
ATGCCCCA | -0.164
CGACTAGC | -0.0065
AGACACGG | 0.218
CTGTCTTA | -0.083
CAAGGAGG | -0.21
ACATTTTG | -0.215
ACAGAAGA | -0.0571
GTACGCTA | -0.0491
CCACAAAG | -0.044
CCGAATAA | 0.381
ACCCACAT | -0.0222
ACGGTGTG | -0.0716
CAACAACC | 0.188
CCTCTGAC | -0.145
CTAAGTTA | -0.283
AAGATCAT | -0.0799
CGAGCCAC | 0.0242
TCCTCAGA | -0.046
CGCGCAAG | -0.0507
GGCTCAAC | -0.0941
TGTGCAAA | -0.317
CATATCTA | -0.0538

Sequence | PBM E-score
CCGAAATC | 0.405
CGTCTTAC | -0.0366
CCCTTACG | -0.16
AGCGGGTA | 0.216
CGTCTCCC | 0.071
AACACGCA | -0.12
AGTACAAT | -0.081
GCATGCGC | -0.0497
AGACTTGA | -0.0711
TGTTGGAA | -0.201
CATGCCCC | -0.00979
AGCAGATC | -0.29
ATATTTGC | -0.0351
ATCGCAGG | -0.279
GAGCGTGC | 0.123
AGACGCAA | -0.0774
AAATAACG | -0.0138
GCAGAGGC | -0.0743
CGGGCGAG | 0.184
ATCGCCTG | -0.1
GGGCAGAA | 0.0693
GGATTCTA | 0.0237
ATTGAGAC | -0.0589
CACTTTAG | -0.0412
GGATGTAA | 0.245

Sequence | PBM E-score
ATCTGTTC | 0.081
CTCGTAGC | -0.133
AGCGAGGA | -0.0315
CCGGGCGC | 0.22
CATGAAAG | -0.00301
CATACGGA | 0.288
AGGGCAAA | 0.0511
ATGTGTTC | 0.059
GCGCAAAC | -0.0362
GCTGCAAC | -0.0315
GCCAGCAC | -0.106
GTTAGGAA | -0.068
TCCGGAAA | 0.439
TCGACGAA | -0.075
CGCACCCG | 0.339
CACATGAG | -0.349
ATGCCCGC | 0.175
TAGACGCA | -0.251
ACTTAAAC | -0.0926
CAACTACC | 0.0365
CGAGCGCA | 0.205
AAATATAA | 0.0326
CCACGAGG | -0.0952
CTGTCCAC | -0.0305
ACTACAGC | -0.0939

Sequence | PBM E-score
CCGGGCGA | 0.183
GCATAATA | 0.00318
AGGACGGA | 0.256
AAGCAGGG | -0.0512
AAACCGAG | 0.332
ATGACACG | 0.155
AGCGTCGC | -0.13
ACAATTTG | -0.222
AAACTGTA | -0.176
GGTGGGGA | 0.0872
CACTAAAC | -0.0976
AAACGGCG | -0.0798
AGTGTAAT | -0.0675
CCCCTACC | -0.0793
ACAAAAAG | 0.0516
ATGCTGAC | -0.113
GAAGTAGA | -0.0217
ACAAGCAT | -0.0413
AGCCACAG | -0.133
TCACTGCA | -0.132
TAAACGGA | 0.208
CGATGCTC | 0.152
CTTACTGA | -0.158
CGTTATGC | -0.258
ACTTTGTA | -0.0912

Sequence | PBM E-score
CGGCCTAC | 0.0488
ATCTACAC | -0.127
CCCGATAG | 0.223
CAATTCCA | -0.0908
CGGCTCGC | 0.236
CATTGAAG | -0.222
TTAGCGAA | -0.0888
CAGCAAAC | -0.0207
GATATGTA | -0.0273
CCCTACTA | -0.0809
CGATACGA | -0.0283
ACTTTTAT | -0.0929
ATCATTTG | -0.0566
GGGTAATA | 0.246
TGGGTACA | 0.0508
TAGCGTGA | -0.23
AATAAGAT | -0.15
AAATTACT | -0.0027
CTGAATTA | -0.0801
CTGCTAGC | -0.23
AGCGCAAT | -0.0399
AACTCTGA | 0.11
